Assay results from PubChem BioAssay AID1768 (National Center for Advancing Translational Sciences (NCATS), 2009).
Out of some 270,000 compounds screened, about 620 (0.23%) were called active. The shares of active, inactive and inconclusive entries below differ from those in the screen. The call rests on the fitted dose curve; in most records, active means well fitted inhibition curve with a large enough effect in the polarisation, with a control signal flat (not every such curve was filed as active); inconclusive means small, poorly fitted or top-dose-only effect, or effect the other way, or a change in a side signal; inactive means no such curve, though single readings can be large or run the other way; the % refers to the polarisation. Potencies beside an inconclusive call are fits to weak or partial responses and may not hold up. “Side channel” marks fits to a control or component signal instead of the main read-out.

What follows are compounds tested against Menin (Homo sapiens) (UniProt O00255) (assay: qHTS Assay for Inhibitors Targeting the Menin-MLL Interaction in MLL Related Leukemias: Competition With Texas Red Labeled MLL-derived Mutant Peptide). Details: fluorescence polarization; FP activity change, negative = inhibition: at 61.6 µM (top of the series).
Potency means the concentration at half of the fitted maximal effect; tags describe the fitted curve by direction and shape or compound fluorescence and quenching.
Wherever FP activity change, negative = inhibition is given: % of control where 0% means no effect.

UniProt O00255, sequence (O00255 whole entry, looked up): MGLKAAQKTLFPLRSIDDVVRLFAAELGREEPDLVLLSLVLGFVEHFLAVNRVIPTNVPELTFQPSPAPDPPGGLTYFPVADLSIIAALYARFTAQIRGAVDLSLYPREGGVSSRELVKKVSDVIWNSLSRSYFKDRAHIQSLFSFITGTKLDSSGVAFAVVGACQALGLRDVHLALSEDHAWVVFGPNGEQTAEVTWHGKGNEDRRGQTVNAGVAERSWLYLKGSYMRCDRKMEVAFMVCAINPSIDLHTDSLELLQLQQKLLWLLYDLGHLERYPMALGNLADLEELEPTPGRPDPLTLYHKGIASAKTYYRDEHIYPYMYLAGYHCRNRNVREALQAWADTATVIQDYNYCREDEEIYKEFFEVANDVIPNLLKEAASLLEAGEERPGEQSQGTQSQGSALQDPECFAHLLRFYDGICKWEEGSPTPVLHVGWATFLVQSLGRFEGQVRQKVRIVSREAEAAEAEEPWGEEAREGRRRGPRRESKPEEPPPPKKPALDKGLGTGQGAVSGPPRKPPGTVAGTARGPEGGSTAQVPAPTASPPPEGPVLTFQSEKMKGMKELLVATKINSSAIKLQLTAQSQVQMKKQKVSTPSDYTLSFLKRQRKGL

Compound	Potency	FP activity change, negative = inhibition
Cc1ccc(SCc2ccc(C(=O)Nc3cccc([N+](=O)[O-])c3)cc2)cc1	inconclusive: 2.82 µM [quencher, side channel, full curve]	–
CCOc1cccc(Nc2ccc([N+](=O)[O-])cn2)c1	inconclusive: 14.1 µM [quencher, side channel, partial curve]	–
Cc1onc(-c2ccccc2Cl)c1C(=O)OCC(=O)Nc1ccc2c(c1)OCO2	inconclusive: 25.1 µM [quencher, side channel, single point]	–
O=C1NN(c2ccc(Br)cc2)C(=O)/C1=C\c1ccc(O)cc1O	inconclusive: 25.1 µM [quencher, side channel, single point]	–
CCCCN(CC)CCNC(=O)c1ccc2c(Cl)c3c(nc2c1)CCC3	inconclusive: 11.2 µM [fluorescent, side channel, partial curve]	–
O=C(N/N=C\C=C\c1ccc2c(c1)OCO2)C1COc2cc3ccccc3cc2O1 (configuration not stated)	active: 20 µM	–
COc1cc(C(=O)N2CCCC(c3nc(-c4cccs4)no3)C2)cc(OC)c1OC (configuration not stated)	inconclusive: 20 µM [inhibitor, single point]	–
Cc1ccc(C(C)C)c(OCC(O)CN(C)Cc2ccccc2)c1 (configuration not stated)	inconclusive: 7.08 µM [fluorescent, side channel, partial curve]	–
Cc1ccc(C(=O)Nc2ccccc2C(=O)O)cc1NC(=O)COc1c(C)cccc1C	inconclusive: 31.6 µM [quencher, side channel, single point]	–
CCOCCCNS(=O)(=O)c1ccc(NC(=O)Cc2c(F)cccc2Cl)cc1	inconclusive: 39.8 µM [fluorescent, side channel, single point]	–
O=C(Nc1cccc(S(=O)(=O)NCc2ccco2)c1)c1cc(-c2ccccc2)nc2ccccc12	inconclusive: 39.8 µM [inhibitor, single point]	–
COc1ccc(NC(=O)CSc2nnc(NC(=O)C3CCC3)s2)cc1	inconclusive: 28.2 µM [fluorescent, side channel, single point]	–
CCOC(=O)c1ccccc1NS(=O)(=O)c1c(C)nc2sccn2c1=O	inactive	–
COc1ccc(-c2cc3ccc(OCC(N)=O)cc3oc2=O)cc1OC	inconclusive: 14.1 µM [inhibitor, partial curve, poor fit]	–
COCCn1c(SCC(=O)N2CCOCC2)nc2ccccc2c1=O	inconclusive: 31.6 µM [inhibitor, partial curve]	–
COc1ccc([N+](=O)[O-])cc1NC(=O)Cc1ccc(Cl)cc1	inconclusive: 28.2 µM [quencher, side channel, single point]	–
C/C(=N\NC(=O)c1ccc(Cl)c(Cl)c1)c1ccccn1	inconclusive: 4.47 µM [quencher, side channel, partial curve]	–
COc1ccc(S(=O)(=O)N2CCC(NC(=O)c3ccccc3)CC2)cc1	inconclusive: 28.2 µM [fluorescent, side channel, single point]	–
CCn1nnc(NC(=O)c2ccc(-c3ccc(Cl)cc3)o2)n1	inactive	–

Compound	Potency	FP activity change, negative = inhibition
CN(C)c1ccc(/C=N\Nc2nc(-c3ccccc3)cc(=O)[nH]2)cc1	inconclusive: 10 µM [quencher, side channel, partial curve]	–
COc1ccccc1C(=O)Nc1ccc2c(c1)C(=O)NC2=O	inconclusive: 17.8 µM [inhibitor, single point]	–
CCN(CC)CC(=O)Nc1sc(C)cc1C(=O)c1ccc(C)cc1	inconclusive: 10 µM [fluorescent, side channel, partial curve]	–
OCC1(Cc2ccc(Cl)cc2)CCN(CC2CC=CCC2)CC1 (configuration not stated)	inactive	–
CC(C)CN1CCN(Cc2cccc3ncccc23)CC1CCO (configuration not stated)	inconclusive: 12.6 µM [inhibitor, partial curve]	–
Cc1c(S(=O)(=O)O)oc2c1C(=O)C(=O)c1c-2ccc2c1CCCC2(C)C	inconclusive: 14.1 µM [quencher, side channel, partial curve]	–
Cc1cccc(NS(=O)(=O)c2ccc3nc(-c4ccccc4)[nH]c3c2)c1C	inconclusive: 39.8 µM [inhibitor, single point]	–
O=C(Nc1ccc(S(=O)(=O)Nc2nccs2)cc1)C1CC(=O)N(c2ccccc2)C1 (configuration not stated)	inconclusive: 39.8 µM [quencher, side channel, single point]	–
COc1cccc(CN(C)CC(=O)NCc2ccccc2Cl)c1OC	inconclusive: 3.55 µM [fluorescent, side channel, full curve]	–
Cc1cccc(OC(=O)C2C(c3ccccc3)C(C(=O)O)C2c2ccccc2)c1 (configuration not stated)	inconclusive: 35.5 µM [quencher, side channel, single point]	–
C/C(COc1ccccc1)=N\NC(=O)c1nnn(-c2nonc2N)c1CSc1ccccc1	inconclusive: 35.5 µM [quencher, side channel, single point]	–
CCn1cc(-c2cc(C(F)(F)F)n3nc(C(=O)O)cc3n2)c(C)n1	inconclusive: 11.2 µM [inhibitor, partial curve, poor fit]	–
CCOC(=O)c1cc(NC(=O)Nc2ccc(Br)cc2)c(C)nc1C	inconclusive: 17.8 µM [quencher, side channel, partial curve]	–
CN1c2ccccc2C(=O)N2CCc3c([nH]c4ccccc34)C21 (configuration not stated)	inactive	–
OC[C@@H]1[C@@H](c2ccccc2)C(c2ccc(F)cc2)=NN1c1ccccc1	inconclusive: 31.6 µM [quencher, partial curve]	–
O=C(/C=C/c1ccccc1[N+](=O)[O-])Nc1ccccc1	inconclusive: 31.6 µM [quencher, side channel, single point]	–
COc1ccc(N2C(=S)N=C(Nc3ccccc3)C23CCCCC3)cc1	inconclusive: 8.91 µM [fluorescent, side channel, partial curve]	–
Fc1ccccc1CNc1ccc(Cl)cc1	inconclusive: 28.2 µM [quencher, side channel, partial curve]	–
COc1ccc(-c2nnc(NC(=O)c3cc(Cl)ccc3Cl)o2)cc1	inconclusive: 39.8 µM [quencher, side channel, single point]	–

Compound	Potency	FP activity change, negative = inhibition
Cc1ccc(C)c(N(C(=O)CNC(=O)c2ccco2)C(C(=O)NCC2CCCO2)c2ccccc2)c1 (configuration not stated)	inconclusive: 15.8 µM [inhibitor, partial curve]	–
C#CCOCCOCCOCCNc1nc(N2CCN(C(=O)C(Cc3cc4ccccc4[nH]3)n3cc(C(N)C(C)CC)nn3)CC2)nc(N2CCN(C(=O)C(Cc3cc4ccccc4[nH]3)n3cc(C(N)C(C)CC)nn3)CC2)n1 (configuration not stated)	inconclusive: 0.631 µM [fluorescent, side channel, full curve]	–
O=C(COC(=O)c1ccc2c(c1)OCCO2)NCCC1=CCCCC1	inactive	–
Cc1cccc(C(=O)N2N=C(c3ccc(NS(C)(=O)=O)cc3)CC2c2cccs2)c1 (configuration not stated)	inconclusive: 25.1 µM [quencher, side channel, single point]	–
O=S(=O)(c1ccc(NC(=S)N/N=C/c2cccc(Oc3ccccc3)c2)cc1)N1CCOCC1	inconclusive: 3.16 µM [inhibitor, full curve, poor fit]	–
COc1ccc(N(CC(=O)Nc2ccc(C)c(C)c2)C2=NC3CS(=O)(=O)CC3S2)cc1 (configuration not stated)	inconclusive: 35.5 µM [fluorescent, side channel, single point]	–
COc1cccc(NC(=O)COC(=O)Cc2ccc(Br)cc2)c1	inconclusive: 31.6 µM [quencher, side channel, single point]	–
Cc1cccc(/C=C2/SC(=O)N(Cc3ccccc3Cl)C2=O)n1	inconclusive: 44.7 µM [inhibitor, single point]	–
O=C(NC1CCCCC1)c1sc(=S)n2c1[nH]c(=O)c1ccccc12	inconclusive: 17.8 µM [quencher, side channel, partial curve]	–
Cc1ccc(/C=C/C(=O)Nc2ccc(S(=O)(=O)Nc3cc(C)nc(C)n3)cc2)cc1	inconclusive: 25.1 µM [quencher, side channel, partial curve]	–
Cc1cc(N2CCOCC2)nc(SCc2ccc(Cl)cc2Cl)n1	inactive	–
COc1ccc(Nc2ccccc2N)cc1	inconclusive: 25.1 µM [fluorescent, side channel, partial curve]	–
O=c1cc2oc3cc(O)c(O)cc3c(-c3ccccc3[N+](=O)[O-])c-2cc1O	inconclusive: 20 µM [quencher, side channel, partial curve]	–
CCn1c(=NC(=O)c2ccc(N3C(=O)CCC3=O)cc2)sc2c(OC)ccc(OC)c21	inconclusive: 8.91 µM [quencher, side channel, partial curve]	–
CC(=O)C12CCCCC1CC1C3CC(C)C4(O)CC(=O)CCC4(C)C3CCC12C (configuration not stated)	inconclusive: 8.91 µM [fluorescent, side channel, full curve]	–
COC(=O)C(C(=O)OC)C1O[C@@]23COCCC2(C)C3c2ccccc21 (some centres not stated)	–	inactive: -3.61% [at 11.7 µM]
C/C(=N\NC(=O)C(N)=O)c1ccc2c(c1)OCCO2	inconclusive: 28.2 µM [inhibitor, single point]	–
CC(C)(C)NC(=O)C(c1ccco1)N(C(=O)Cn1nnc(-c2ccc(F)cc2)n1)c1cccc(F)c1 (configuration not stated)	inactive	–
COc1cccc(C(C(=O)NC(C)(C)C)N(C(=O)CCC(=O)Nc2cc(C)on2)C(C)C)c1OC (configuration not stated)	inconclusive: 17.8 µM [fluorescent, side channel, single point]	–
